Data published in PMC12136788.
The list shows a part of the results.

T1: UNK ZnF1-6 (called full-length) (human, UniProt Q9C0B0 30-357)
T1 sequence: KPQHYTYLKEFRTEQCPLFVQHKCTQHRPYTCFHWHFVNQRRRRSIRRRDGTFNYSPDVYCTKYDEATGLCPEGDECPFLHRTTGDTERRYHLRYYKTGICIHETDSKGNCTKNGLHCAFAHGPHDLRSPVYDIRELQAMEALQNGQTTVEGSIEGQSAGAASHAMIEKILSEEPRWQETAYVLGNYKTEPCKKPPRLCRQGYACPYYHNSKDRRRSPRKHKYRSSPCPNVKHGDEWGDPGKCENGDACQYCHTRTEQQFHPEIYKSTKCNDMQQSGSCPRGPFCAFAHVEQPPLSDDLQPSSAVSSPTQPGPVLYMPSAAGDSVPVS

B1: ENSG00000136451:be:win_2101|3pUTR|ENSG00000136451|bound_else_gene|NA|bound_elsewhere_windowed (ssRNA)
RNA: GGGAGUUCUACAGUCCGACGAUCAUGUUAAUUUCAGGCAGCAUUCCCUAUGGGAAAGGUGAUACCAGCUCUGAUAUGCAAAGCAUAUGAUAAUUUAUCAUUCUAACUUCAACGUAUAAUAGGGAUUGUGACCUGAUAUUUGGACAACAGAGGAUUGAGCAUCA
B2: chr19:48404743:48404844:+|CDS|ENSG00000105464|unk|FALSE|unique (ssRNA)
RNA: GGGAGUUCUACAGUCCGACGAUCCGAGCAACAGCUUCAGGUCAUCUUUGAGGUGCUGGAGGAGUAUGACUGGACGUCCUUUGUAGCCGUGACCACUCGUGCCCCUGGCCACCGGGCCUUCCUGUCCUACAUUGAGGUGCUGACCAACAGAGGAUUGAGCAUCA
B3: chr12:13083531:13085147:-|three_prime_utr|ENSG00000111305|control|control|control (ssRNA)
RNA: GGGAGUUCUACAGUCCGACGAUCUCCGAGCUGCGGAACAAGGGAUUUCAAAGAGGGGCCAGCCAGGAGCUGAAAGAAGCAGUUAGGUCAUCUGUAGAGGAAGAGCAGUGUUAGGAGUUAAGCGGGUUUGGGGAGUAGGCUUGACAACAGAGGAUUGAGCAUCA
B4: chr9:101390585:101390694:-|CDS|ENSG00000136897|unk|total|mutant (ssRNA)
RNA: GGGAGUUCUACAGUCCGACGAUCUAAUUGGCAAGACAUCUCCCUGGAAGACCGUCGUCUAAAGUUCAAUCUUCUGGCUCAUUCCGCUGAUGACUUGGGUCAUGCCGUCCCUAACUCCAGACUCCACCAGAUGUGCAGGGUCCGCAACAGAGGAUUGAGCAUCA
B5: ENSG00000084774:stop:overlap|stop_codon|ENSG00000084774|stop_codon|NA|stop_codon (ssRNA)
RNA: GGGAGUUCUACAGUCCGACGAUCAGGCUGAGAACGGCAUGUACAUCCGCAUGGCUCUGUUAGCCACCGUGCUGGGCCGUUUCUAGGGCCUGGCUUCCUCAGCCUCUUCUCUUUAGGCCCAGCUGCUGGGCAAGGAAUUCCAGUCAACAGAGGAUUGAGCAUCA
B6: chr5:140245379:140245480:-|3pUTR|ENSG00000113068|msi1|total|mutant (ssRNA)
RNA: GGGAGUUCUACAGUCCGACGAUCUCUUCUCUUUUCCCUUCCUGUACCUUUGACUAACGCUCAGCUUCCGGGCCUGCAUGCAGCCGACAGAAGAGGAAGAAAGAACAGAUGUUCACAGCUGAAUCUCAGUGAACAGAACCGCAGCAACAGAGGAUUGAGCAUCA
B7: chr17:65014400:65014519:-|CDS|ENSG00000120063|unk|total|mutant (ssRNA)
RNA: GGGAGUUCUACAGUCCGACGAUCAAACAAGACAGACUUGCUUGAGGAGAAGGUGCAAAUUGUGAGCAUCAAAGACUAUUUCCCCGAAUUUGAAGGGGAUCCCCACUGCUUAAGAGACGUCCAAAAAUUCCUGGUGGAAUGUUUCAACAGAGGAUUGAGCAUCA
B8: ENSG00000198589:be:win_7551|CDS|ENSG00000198589|bound_else_gene|NA|bound_elsewhere_windowed (ssRNA)
RNA: GGGAGUUCUACAGUCCGACGAUCGCCUGGUUUGGCAACUCCCGCUGUGAUCACAGUCACUGCUAACAGGUUAUUUGCGGUGAACAAAUGGCACAACCUUCCUGCUCAUCAAGGUGCUGUACAAGACCAGCCAUACCAGCUGCCCAACAGAGGAUUGAGCAUCA
B9: chr1:114567884:114567985:-|3pUTR|ENSG00000116752|msi1|FALSE|bound_elsewhere (ssRNA)
RNA: GGGAGUUCUACAGUCCGACGAUCUGGUAAUUCUAUUUGUAUAUCUCAACAGAAUUAAAAUGUCUAGCUUGGUGGUAUUUUUAUAGCCAUAAAAGAAAAUCUUUAGGCUUUCAAAAUAAGGAUGACUUUAGAAUAAUAUUGUGUCAACAGAGGAUUGAGCAUCA
B10: chr1:53952023:53952124:+|CDS|ENSG00000116212|msi1|total|mutant (ssRNA)
RNA: GGGAGUUCUACAGUCCGACGAUCUACAUGCGAGAAAAUGGGCAGCUGCACAUGGUCAAUCUGGCUCUGGAUGGUGUCAGGAGCCGCCUGCAGAAGCCAAGGCCUUUCAGACUGUUCCCCAAAGGCUUUUCUGUGGAGCUUUGCCAACAGAGGAUUGAGCAUCA
B11: chr5:72198766:72198867:+|CDS|ENSG00000131711|msi1_unk|FALSE|overlapping (ssRNA)
RNA: GGGAGUUCUACAGUCCGACGAUCUUCUACCUCUGCAGUCAAAGAGAAAACAGCAACUUGCCACAGUUCCUCUUCUCCACCAAUAGAUGCAGCAUCCGCAGAGCCCUAUGGCUUCCGUGCCUCAGUGUUAUUCGAUACAAUGCACAACAGAGGAUUGAGCAUCA
B12: ENSG00000165219:stop:overlap|stop_codon|ENSG00000165219|stop_codon|NA|stop_codon (ssRNA)
RNA: GGGAGUUCUACAGUCCGACGAUCUACCUAUAGGUAAAGAGAAUUUCUCGUAUUGGAGCUUUCUCUUAAAUCUAAUAUUUCAUUAGCCUUUGUUAUUGCUGAGUGUUUUGGAACAUAUGUUUAAGUACUUGGGAAAGUCUUUCUCAACAGAGGAUUGAGCAUCA
B13: chr4:103158754:103158855:-|CDS|ENSG00000138778|msi1|FALSE|unique (ssRNA)
RNA: GGGAGUUCUACAGUCCGACGAUCGGAGAAAACACGUGAGGUUCAAGAAAGACUAAAUGAGAUGGAACAGCUGAAGGAACAAUUAGAAAAUAGAGAUUCUACGCUGCAAACUGUAGAAAGGGAGAAAACACUGAUUACUGAGAACAACAGAGGAUUGAGCAUCA
B14: chr14:100881274:100881386:-|CDS|ENSG00000254656|unk|FALSE|unique (ssRNA)
RNA: GGGAGUUCUACAGUCCGACGAUCCGCAGGCAGCAGCAUCACGACAGCCAUCACCCAGCUGCUCACCCAGAUGCCCGCUCUCGUAGGUGCAAACACCAUCCCAGCCCAGGAGCUGGCUGAGCUGUUCCUGGGCCCUGGCCGCUGCAACAGAGGAUUGAGCAUCA
B15: chr1:45693489:45693605:+|CDS|ENSG00000159596|unk|FALSE|unique (ssRNA)
RNA: GGGAGUUCUACAGUCCGACGAUCAAUCCCCUUCGUUGCUCCACCACUGGUCAUGCUGAUGACAAAAACUUAUAUUCCCAUAUUAGCUUUUACUCAGAUGGCUUAUGGAGCCAGUUUCCUAUCUUUCUUGGGUGGGAUCAGAUGCAACAGAGGAUUGAGCAUCA
B16: chr2:5695263:5695412:+|3pUTR|ENSG00000176887|msi1_unk|total|mutant (ssRNA)
RNA: GGGAGUUCUACAGUCCGACGAUCUGGUGAUACCGACCUCAGAGCUGUUAUCUCCGUUUAAAGAUUGUAUAUGUACUGUACUACCGCCGGACUUUAUGUAUCUCAUACGCUGUGAUGUGGAUGGGGCCCCAGAUGGAAGGUUUGCAACAGAGGAUUGAGCAUCA
B17: chr10:92050442:92050545:-|3pUTR|ENSG00000107864|unk|total|mutant (ssRNA)
RNA: GGGAGUUCUACAGUCCGACGAUCAUGAAGGCCUGCCCGCACCCGCGUGGACAUUUUUCCCGCAUUCACCCUUGGGCUGCAGACCGUAAUAUAUAAACACACACAAUGAUUGCAAGACUAUGUAAAUCUUUUUUUAAUCUUCUUCAACAGAGGAUUGAGCAUCA
B18: chr11:35231115:35231675:+|3pUTR|ENSG00000026508|msi1|total|mutant (ssRNA)
RNA: GGGAGUUCUACAGUCCGACGAUCCAGGACAAGGUUCAAAAUGGUUACAACAGCCUCUACCUGUCGCCCCAGGGAGAAAGGGGCCGUGAUACAAGUCUCACCGCCAGAGAUGGUUUUCCACUCCUUCCCGAUAUUCCCAAAAAGCAACAGAGGAUUGAGCAUCA
B19: chr4:24540214:24540319:-|CDS|ENSG00000109606|unk|FALSE|unique (ssRNA)
RNA: GGGAGUUCUACAGUCCGACGAUCUACUUUGUCACAUUUUUGCUUGCUUAAGGCACCGUGUCUAAUAGAUUGUCUUUUACCACUAGCUCCUGAAACUCUGAUGAGAGCCCUGGAACUUUUGAAUUACCUGGCUGCUUUAAAUGACAACAGAGGAUUGAGCAUCA
B20: chr4:175632990:175633131:-|3pUTR|ENSG00000150625|msi1|total|mutant (ssRNA)
RNA: GGGAGUUCUACAGUCCGACGAUCGUUGACACUUUUGGCUUUUAUUUCUGGUAUCCGAGUUUGUAUUUUCACAGAGUGCUUUGCCGCAGGCAUUACAAUUAAUCUGUUUUGUACAUAAAUGUGCCAACAGCUUGAUGGUGGCGUCAACAGAGGAUUGAGCAUCA
B21: chr5:175441761:175443099:-|CDS|ENSG00000184845|control|control|control (ssRNA)
RNA: GGGAGUUCUACAGUCCGACGAUCGAAGGCAUUUUCAACCCUCUUAGGAUGCUACAGACUUUGCCCUGCGACGAAUAAUGCCAUAGAGACGGUGAGUAUCAAUAACAAUGGGGCCGCGAUGUUUUCCAGCCAUCAUGAGCCACGCAACAGAGGAUUGAGCAUCA
B22: chr14:77132432:77132533:-|3pUTR|ENSG00000177108|unk|FALSE|unique (ssRNA)
RNA: GGGAGUUCUACAGUCCGACGAUCUGUGAUUGCUGGACCCAGAGGCAAGAUCUGCAGAGAUGCCUGUGAGAUAUUUGCUUUCCUAGAGGGGAGUGUGGGCAUGGGAGGGGUCUGAAAAUCAGGACCCAACCCAGCCACUGAAGACAACAGAGGAUUGAGCAUCA

biological target: T1, UNK ZnF1-6 (called full-length); experiment: nsRBNS (natural sequence RNA bind-n-seq); RBNS binding buffer (assumed for nsRBNS): 25 mM Tris pH 7.5, 150 mM KCl, 3 mM MgCl2, 0.01% Triton X-100, 500 ug/ml BSA, 20 U/ml SUPERase-In, 4 C; UNK is unkempt and MSI1 is Musashi-1; names of the RNAs are library labels; protein concentration not given here; high values mean tight binding

Row | Binder | binding signal [enrichment R]
1 | B1 | 0.282
2 | B2 | 0.537
3 | B3 | 1.4
4 | B4 | 0.623
5 | B5 | 1.28
6 | B6 | 0.57
7 | B7 | 0.375
8 | B8 | 0.86
9 | B9 | 1.08
10 | B10 | 0.676
11 | B11 | 0.59
12 | B12 | 1.01
13 | B13 | 1.81
14 | B14 | 0.537
15 | B15 | 1.03
16 | B16 | 0.801
17 | B17 | 1.63
18 | B18 | 0.541
19 | B19 | 0.313
20 | B20 | 0.357
21 | B21 | 0.77
22 | B22 | 0.647
